# The supplement of paper PMC8728848
# The other results are listed elsewhere or left out.
# Experiments:
# Test in all cases: glycan array binding signal (z-score within array); higher = stronger binding
# Details in all cases: glycan notation: IUPAC condensed, linker removed
# [1] = target: GlcNAc(b1-3)Gal(b1-4)GlcNAc
# Summary of the method: (§1)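 Glycan array binding is given as a within-array Z-score, which can be read as non-binding when negative. The arrays, 3228 of them, came from the Consortium for Functional Glycomics database and were retained only where the protein sequence was available. Z-scores were averaged across arrays of the same protein sequence at different concentrations or buffers and across linkers.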
# [2] = target: GlcNAc(b1-3)Gal(b1-4)GlcNAc(b1-3)Gal(b1-4)GlcNAc
# Summary of the method: as §1
# GlcNAc(b1-3)GalNAc = target: GlcNAc(b1-3)GalNAc
# Summary of the method: as §1
# GlcNAc(b1-3)Man = target: GlcNAc(b1-3)Man
# Summary of the method: as §1
# [3] = target: GlcNAc(b1-3)[GlcNAc(b1-4)][GlcNAc(b1-6)]GlcNAc
# Summary of the method: as §1
# [4] = target: GlcNAc(b1-3)[GlcNAc(b1-6)]Gal(b1-4)GlcNAc
# Summary of the method: as §1
# [5] = target: GlcNAc(b1-3)[GlcNAc(b1-6)]GalNAc
# Summary of the method: as §1
# [6] = target: GlcNAc(b1-4)Gal(b1-4)GlcNAc
# Summary of the method: as §1
# GlcNAc(b1-4)GlcNAc = target: GlcNAc(b1-4)GlcNAc
# Summary of the method: as §1
# [7] = target: GlcNAc(b1-4)GlcNAc(b1-4)GlcNAc
# Summary of the method: as §1
# [8] = target: GlcNAc(b1-4)GlcNAc(b1-4)GlcNAc(b1-4)GlcNAc(b1-4)GlcNAc
# Summary of the method: as §1
# [9] = target: GlcNAc(b1-4)GlcNAc(b1-4)GlcNAc(b1-4)GlcNAc(b1-4)GlcNAc(b1-4)GlcNAc
# Summary of the method: as §1
# [10] = target: GlcNAc(b1-4)[GlcNAc(b1-6)]GalNAc
# Summary of the method: as §1
# [11] = target: GlcNAc(b1-6)Gal(b1-4)GlcNAc
# Summary of the method: as §1
# GlcNAc(b1-6)GalNAc = target: GlcNAc(b1-6)GalNAc
# Summary of the method: as §1
# GlcNAc3Prop(b1-4)GlcNAc = target: GlcNAc3Prop(b1-4)GlcNAc
# Summary of the method: as §1
# [12] = target: GlcNAc6S(b1-3)Gal(b1-4)GlcNAc
# Summary of the method: as §1
# Kdn(a2-3)Gal(b1-3)GalNAc = target: Kdn(a2-3)Gal(b1-3)GalNAc
# Summary of the method: as §1
# Kdn(a2-3)Gal(b1-3)GlcNAc = target: Kdn(a2-3)Gal(b1-3)GlcNAc
# Summary of the method: as §1
# Kdn(a2-3)Gal(b1-4)Glc = target: Kdn(a2-3)Gal(b1-4)Glc
# Summary of the method: as §1
# Kdn(a2-3)Gal(b1-4)GlcNAc = target: Kdn(a2-3)Gal(b1-4)GlcNAc
# Summary of the method: as §1
# [13] = target: Kdn(a2-3)Gal(b1-4)[Fuc(a1-3)]GlcNAc
# Summary of the method: as §1
# Kdn(a2-6)Gal(b1-4)GlcNAc = target: Kdn(a2-6)Gal(b1-4)GlcNAc
# Summary of the method: as §1
# [14] = target: Man(a1-2)Man(a1-2)Man(a1-3)Man
# Summary of the method: as §1
# [15] = target: Man(a1-2)Man(a1-2)Man(a1-6)[Man(a1-3)]Man
# Summary of the method: as §1
# Man(a1-2)Man(a1-3)Man = target: Man(a1-2)Man(a1-3)Man
# Summary of the method: as §1
# [16] = target: Man(a1-2)Man(a1-3)[Man(a1-2)Man(a1-6)]Man
# Summary of the method: as §1
# [17] = target: Man(a1-2)Man(a1-3)[Man(a1-2)Man(a1-6)]Man(a1-6)[Man(a1-2)Man(a1-2)Man(a1-3)]Man
# Summary of the method: as §1
# [18] = target: Man(a1-2)Man(a1-3)[Man(a1-2)Man(a1-6)]Man(a1-6)[Man(a1-2)Man(a1-2)Man(a1-3)]Man(b1-4)GlcNAc(b1-4)GlcNAc
# Summary of the method: as §1
# [19] = target: Man(a1-2)Man(a1-3)[Man(a1-6)]Man(a1-6)[Man(a1-2)Man(a1-3)]Man(b1-4)GlcNAc(b1-4)GlcNAc
# Summary of the method: as §1
# [20] = target: Man(a1-2)Man(a1-6)[Man(a1-3)]Man(a1-6)[Man(a1-2)Man(a1-2)Man(a1-3)]Man
# Summary of the method: as §1
# [21] = target: Man(a1-2)Man(a1-6)[Man(a1-3)]Man(a1-6)[Man(a1-2)Man(a1-2)Man(a1-3)]Man(b1-4)GlcNAc(b1-4)GlcNAc
# Summary of the method: as §1
# Man(a1-3)[Man(a1-6)]Man = target: Man(a1-3)[Man(a1-6)]Man
# Summary of the method: as §1
# [22] = target: Man(a1-3)[Man(a1-6)]Man(a1-6)[Man(a1-2)Man(a1-3)]Man(b1-4)GlcNAc(b1-4)GlcNAc
# Summary of the method: as §1
# [23] = target: Man(a1-3)[Man(a1-6)]Man(a1-6)[Man(a1-3)]Man
# Summary of the method: as §1
# [24] = target: Man(a1-3)[Man(a1-6)]Man(a1-6)[Man(a1-3)]Man(b1-4)GlcNAc(b1-4)GlcNAc
# Summary of the method: as §1
# [25] = target: Man(a1-3)[Man(a1-6)]Man(b1-4)GlcNAc(b1-4)GlcNAc
# Summary of the method: as §1
# Man(a1-6)Man = target: Man(a1-6)Man
# Summary of the method: as §1
binder,measurement,setting,value
"Ficolin B (Rattus norvegicus), P57756 (protein) MVLGSAALFVLSLCVTELTLHAADTCPEVKVLDLEGSNKLTILQGCPGLPGALGPKGEAGAKGDRGESGLPGHPGKAGPTGPKGDRGEKGVRGEKGDTGPSQSCATGPRTCKELLTRGYFLTGWYTIYLPDCRPLTVLCDMDTDGGGWTVFQRRIDGTVDFFRDWTSYKQGFGSQLGEFWLGNDNIHALTTQGTNELRVDLADFDGNHDFAKYSSFQIQGEAEKYKLILGNFLGGGAGDSLTSQNNMLFSTKDQDNDQGSSNCAVRYHGAWWYSDCHTSNLNGLYLRGLHKSYANGVNWKSWKGYNYSYKVSEMKVRLI",glycan array binding signal (z-score),[1],0.266
same,glycan array binding signal (z-score),[2],0.304
same,glycan array binding signal (z-score),GlcNAc(b1-3)GalNAc,-0.144
same,glycan array binding signal (z-score),GlcNAc(b1-3)Man,-0.186
same,glycan array binding signal (z-score),[3],-0.024
same,glycan array binding signal (z-score),[4],0.454
same,glycan array binding signal (z-score),[5],-0.126
same,glycan array binding signal (z-score),[6],0.069
same,glycan array binding signal (z-score),GlcNAc(b1-4)GlcNAc,-0.154
same,glycan array binding signal (z-score),[7],-0.151
same,glycan array binding signal (z-score),[8],-0.205
same,glycan array binding signal (z-score),[9],0.166
same,glycan array binding signal (z-score),[10],-0.148
same,glycan array binding signal (z-score),[11],-0.217
same,glycan array binding signal (z-score),GlcNAc(b1-6)GalNAc,-0.086
same,glycan array binding signal (z-score),GlcNAc3Prop(b1-4)GlcNAc,-0.193
same,glycan array binding signal (z-score),[12],0.311
same,glycan array binding signal (z-score),Kdn(a2-3)Gal(b1-3)GalNAc,-0.06
same,glycan array binding signal (z-score),Kdn(a2-3)Gal(b1-3)GlcNAc,0.074
same,glycan array binding signal (z-score),Kdn(a2-3)Gal(b1-4)Glc,-0.226
same,glycan array binding signal (z-score),Kdn(a2-3)Gal(b1-4)GlcNAc,-0.219
same,glycan array binding signal (z-score),[13],-0.138
same,glycan array binding signal (z-score),Kdn(a2-6)Gal(b1-4)GlcNAc,-0.209
same,glycan array binding signal (z-score),[14],-0.074
same,glycan array binding signal (z-score),[15],-0.244
same,glycan array binding signal (z-score),Man(a1-2)Man(a1-3)Man,-0.059
same,glycan array binding signal (z-score),[16],-0.21
same,glycan array binding signal (z-score),[17],-0.232
same,glycan array binding signal (z-score),[18],-0.224
same,glycan array binding signal (z-score),[19],-0.169
same,glycan array binding signal (z-score),[20],-0.212
same,glycan array binding signal (z-score),[21],-0.18
same,glycan array binding signal (z-score),Man(a1-3)[Man(a1-6)]Man,-0.166
same,glycan array binding signal (z-score),[22],-0.182
same,glycan array binding signal (z-score),[23],-0.217
same,glycan array binding signal (z-score),[24],-0.204
same,glycan array binding signal (z-score),[25],-0.19
same,glycan array binding signal (z-score),Man(a1-6)Man,-0.229
